# Laboratory results as given in PubChem BioAssay AID493005 (National Center for Advancing Translational Sciences (NCATS), 2010).
# The campaign covered roughly 340,000 compounds. Fewer than 10 were called active. Inconclusive results, whose numbers are uncertain, are shown with a selection of clear calls. Calls come from the whole dose curve; as a rule, active = well fitted inhibition curve with a large enough effect in the main read-out, with a control signal flat (not every such curve was filed as active); inconclusive = small, poorly fitted or top-dose-only effect, or effect the other way, or a change in a side signal; inactive = no such curve, though single readings can be large or run the other way. Potencies of inconclusive entries are doubtful fits and often do not repeat. A note “side channel” means that the fit belongs to a control or component signal, not to the main read-out.
# Biological target: Tumor susceptibility gene 101 protein (Homo sapiens) (UniProt Q99816)
# Chain of UniProt Q99816 (Q99816 whole entry, looked up): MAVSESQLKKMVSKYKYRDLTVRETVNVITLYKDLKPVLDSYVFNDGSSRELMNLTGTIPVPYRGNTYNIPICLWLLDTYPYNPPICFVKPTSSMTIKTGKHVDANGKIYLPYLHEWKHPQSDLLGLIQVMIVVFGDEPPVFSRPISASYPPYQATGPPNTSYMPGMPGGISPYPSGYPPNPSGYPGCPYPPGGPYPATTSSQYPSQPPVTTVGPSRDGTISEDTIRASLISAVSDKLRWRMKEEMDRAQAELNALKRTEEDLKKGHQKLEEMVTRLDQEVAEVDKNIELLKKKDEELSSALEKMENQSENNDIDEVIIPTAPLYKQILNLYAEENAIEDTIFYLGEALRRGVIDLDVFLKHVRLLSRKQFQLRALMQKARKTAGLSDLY
# Test: qHTS Assay for Iinhibitors of HIV-1 Budding by Blocking the Interaction of PTAP/TSG101
# Conditions: Fluorescence polarization, FITC-PTAP peptide / Tsg101 binding; series mostly up to 115 µM
# In short: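 Fluorescence polarization binding of Tsg101 binding domain (10 uM final) to FITC-labeled PTAP peptide (50 nM final) in HEPES pH 7.5 buffer with NaCl, Tween 20, EDTA, TCEP. Compounds added before peptide; binding 20 min at RT.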
# Potency is the fitted concentration of half-maximal effect; tags give direction and shape of the fitted curve or compound fluorescence and quenching.
row,Structure (SMILES),Potency
1,COc1ccc(OC)c(NC(=O)CCN2CC(C)CC(C)C2)c1 (stereo not given),"inconclusive: 56.2 µM [falling, partial curve, poor fit]"
2,CCCCNC(=O)c1onc(CSc2cccc(OC)c2)c1C(=O)NCCCC,"inconclusive: 44.7 µM [quencher, side channel, partial curve, poor fit]"
3,Cc1n[nH]c(=O)c2c(NC(=O)CSc3nnc(-c4ccncc4)n3C)oc(C)c12,inactive
4,Cc1cc(Nc2cccc(Cl)c2C)n2ncnc2n1,"inconclusive: 100 µM [falling, single point]"
5,CC(=O)Nc1sc(/C(C#N)=C\c2cccc(Cl)c2)nc1-c1ccc(C)cc1,"inconclusive: 14.1 µM [fluorescent, side channel, full curve, poor fit]"
6,COc1ccc(OC)c(/C=C2\SC(=S)N(Cc3cccnc3)C2=O)c1,"inconclusive: 56.2 µM [fluorescent, side channel, partial curve, poor fit]"
7,CN(N=Nc1ccc([N+](=O)[O-])cc1)c1ccccc1,"inconclusive: 50.1 µM [fluorescent, side channel, partial curve, poor fit]"
8,CSc1nsc(SCC(=O)Nc2ccc(Br)cn2)n1,inactive
9,COc1ccc(CCn2c(=N)c(S(=O)(=O)c3ccc(Cl)cc3)cc3c(=O)n4ccccc4nc32)cc1,"inconclusive: 89.1 µM [fluorescent, side channel, partial curve, poor fit]"
10,CC(C)c1ccc(NC(=O)C2CCCCN2S(=O)(=O)c2ccccc2)cc1 (stereo not given),inactive
11,COC(=O)c1cc(N2CCN(C)CC2)nc2ccccc12,"inconclusive: 56.2 µM [fluorescent, side channel, partial curve, poor fit]"
12,CCCCCCCCCCCCCCCC[n+]1cccc2ccccc21,inactive
13,CCN1C(=O)/C(=C/N2CCc3ccccc32)SC1=S,"inconclusive: 39.8 µM [fluorescent, side channel, partial curve]"
14,CCC/C(C#Cc1ccc(N(C)C)cc1)=C1/c2ccccc2C(=O)N1c1ccccc1,"inconclusive: 56.2 µM [fluorescent, side channel, partial curve, poor fit]"
15,CCOC(=O)c1cc(-c2ccccc2)sc1NC(=S)Nc1cc(C)ccn1,"inconclusive: 50.1 µM [fluorescent, side channel, partial curve, poor fit]"
16,COc1ccc(NC(=O)/C(C#N)=C\c2ccc(N3CCOCC3)o2)cc1,"inconclusive: 56.2 µM [fluorescent, side channel, partial curve, poor fit]"
17,Nc1c(C(=O)Nc2nc3ccccc3s2)sc2nc(-c3cccs3)ccc12,"inconclusive: 79.4 µM [fluorescent, side channel, partial curve, poor fit]"
18,CC(=O)c1c(N2CCN(Cc3ccccc3)CC2)nc(=S)n(Cc2ccccc2)c1C,inactive
19,COC(=O)C(C#N)c1nc2ccccc2nc1N1CCCC1 (stereo not given),"inconclusive: 89.1 µM [fluorescent, side channel, single point]"
20,CN(C)c1ccc(/C=C2\CCC/C(=C\c3ccccc3)C2=O)cc1,"inconclusive: 56.2 µM [fluorescent, side channel, partial curve, poor fit]"

row,Structure (SMILES),Potency
1,CCCCn1c(=O)[nH]c2nc3cc(N)ccc3nc2c1=O,"inconclusive: 79.4 µM [fluorescent, side channel, partial curve]"
2,CN=C1C=C/C(=N/N=c2\ccn(O)cc2C)C=C1C,"inconclusive: 44.7 µM [quencher, side channel, partial curve, poor fit]"
3,C=CCn1c(SCC(=O)NCc2ccco2)nnc1-c1ccc2ccccc2n1,inactive
4,CCCOc1ccc(/C=C/c2[nH]c(=O)[nH]c(=O)c2[N+](=O)[O-])cc1OCC,"inconclusive: 70.8 µM [fluorescent, side channel, partial curve, poor fit]"
5,Cc1[nH]n(-c2cccc(Cl)c2)c(=O)c1C=NC12CN3CN(CN(C3)C1)C2,inactive
6,O=C(NCc1cccc(C(F)(F)F)c1)c1cccc2c1C(=O)c1ccc(N3CCC(Cc4ccccc4)CC3)cc1S2(=O)=O,"inconclusive: 56.2 µM [fluorescent, side channel, partial curve, poor fit]"
7,CC(=O)c1ccc(NC(=O)CN2C(=O)/C(=C/C=C/c3ccccc3)SC2=S)cc1,"inconclusive: 50.1 µM [fluorescent, side channel, partial curve, poor fit]"
8,COc1ccc(/C=C/C(=O)c2c(C)cc(C)[nH]c2=O)c2ccccc12,"inconclusive: 79.4 µM [fluorescent, side channel, single point]"
9,CCC1=NN(C(=O)c2ccc(C)cc2)C(O)(c2ccc(Br)cc2)C1 (stereo not given),inactive
10,CC(C)(C)c1cc(CSC(=S)NC2CCS(=O)(=O)C2)c(Br)c(C(C)(C)C)c1 (stereo not given),"inconclusive: 44.7 µM [quencher, side channel, partial curve, poor fit]"
11,CC1CCN(c2ccc3c(c2)S(=O)(=O)c2ccccc2C3=O)CC1,"inconclusive: 70.8 µM [fluorescent, side channel, partial curve]"
12,CCCCCOc1ccc(/C=c2\sc3nc(=O)c(-c4ccccc4)nn3c2=O)cc1OC,"inconclusive: 31.6 µM [falling, single point]"
13,O=[N+]([O-])c1cc(Oc2cccnc2)cc([N+](=O)[O-])c1,inactive
14,COc1cc(C(C)=O)ccc1OCC(O)CN1CCN(c2cc(C)cc(C)c2)CC1 (stereo not given),inactive
15,Cc1ccc(NC(=O)C2CCN(C(=O)[C@@H]3Cc4ccccc4CN3)CC2)cc1,inactive
16,COCCNC(=O)/C(C#N)=C/c1ccc(N2CCOCC2)o1,"inconclusive: 56.2 µM [fluorescent, side channel, partial curve, poor fit]"
17,N/C(=N\OC(=O)CC1CCCCC1)c1cccc(Br)c1,inactive
18,Cc1cccc(N2C(=O)c3cccc4c(N(C)CCO)ccc(c34)C2=O)c1,"inconclusive: 56.2 µM [fluorescent, side channel, partial curve, poor fit]"
19,CCCCC(=O)NC1=NC(=O)C(C)(C)S1,"inconclusive: 20 µM [fluorescent, side channel, full curve, poor fit]"
20,Cc1ccc(N2C(=O)C3C(C(=O)c4ccccc4)=NN(c4ccccc4)C3C2=O)cc1 (stereo not given),"inconclusive: 79.4 µM [fluorescent, side channel, partial curve, poor fit]"

row,Structure (SMILES),Potency
1,Cc1ccc(NC(=O)CN2C(=O)S/C(=C/c3ccc(-c4cc(C(=O)O)ccc4C)o3)C2=O)cc1C,"inconclusive: 79.4 µM [fluorescent, side channel, single point]"
2,CN(C)S(=O)(=O)c1ccc(-c2cn3ccccc3n2)cc1,inactive
3,COC(=O)C1=C(CCc2ccccc2)NC(=O)NC1c1ccc(C#N)cc1 (stereo not given),inactive
4,N#CC(C(=O)NCCc1ccccc1)c1nc2ccccc2nc1N1CCOCC1 (stereo not given),"inconclusive: 89.1 µM [fluorescent, side channel, single point]"
5,CCOC(=O)N1CCC(Nc2cc(C)nc3c(-c4ccccc4OC)c(C)nn23)CC1,inactive
6,Cc1ccc(-c2cc(C(=O)NCCCn3ccnc3)c3cc(Br)ccc3n2)o1,inactive
7,CCC(C)(C)C1CCC(NC(=O)c2ccc(S(=O)(=O)N3CCOCC3)cc2)CC1 (stereo not given),inactive
8,Cn1c(=O)c(C(=O)COC(=O)c2cc(C3CC3)nc3ccccc23)c(N)n(Cc2ccccc2)c1=O,inactive
9,O=C1c2ccccc2S(=O)(=O)c2cc(N3CCC(C(=O)N4CCCCC4)CC3)ccc21,"inconclusive: 79.4 µM [fluorescent, side channel, partial curve, poor fit]"
10,COc1ccc2c(c1)c1nc3ccccc3nc1n2CCCN1C(=O)c2ccccc2C1=O,"inconclusive: 50.1 µM [fluorescent, side channel, partial curve, poor fit]"
11,Cc1ccc(C2=NC3(CCCC3)N=C2SCC(=O)Nc2ccc3c(c2)OCCO3)cc1,inactive
12,COc1ccc(/C=C2/N=C(c3cccs3)OC2=O)cc1OC(C)C,"inconclusive: 79.4 µM [fluorescent, partial curve]"
13,N#CC(C#N)=C1C=C2C=C(N3CCCCC3)CCC2CC1 (stereo not given),"inconclusive: 20 µM [fluorescent, side channel, full curve]"
14,O=C1NC2c3c(I)sc(I)c3C(=O)C2O1 (stereo not given),"inconclusive: 56.2 µM [fluorescent, side channel, partial curve, poor fit]"
15,CC1C/C(=C/c2cccn2C)C(=O)/C(=C/c2cccn2C)C1 (stereo not given),"inconclusive: 22.4 µM [fluorescent, side channel, full curve]"
16,CCC(C)(C)n1nnnc1C(C(C)C)N(Cc1ccco1)Cc1cc2cc3c(cc2[nH]c1=O)OCO3 (stereo not given),inactive
17,Cc1cccc(OCCn2cc(/C=N/NC(=O)c3ccncc3)c3ccccc32)c1,"inconclusive: 89.1 µM [quencher, side channel, single point]"
18,CCCCCCOC(=O)c1ccc(N)cc1,inactive
19,O=C1/C(=C/c2ccco2)Oc2c1ccc(O)c2CN1CCCCC1,"inconclusive: 56.2 µM [fluorescent, side channel, partial curve, poor fit]"
20,CCOC(=O)Cn1c2ccc(OC)cc2c2nc3ccccc3nc21,"inconclusive: 89.1 µM [fluorescent, side channel, partial curve, poor fit]"
